Reference: publication PMC4019984, “Kinase and channel activity of TRPM6 are co-ordinated by a dimerization motif and pocket interaction” (Biochemical Journal, 2014)
Residue numbers refer to the chain shown, from its start. In names and notes the source's numbering stands. Where two headings read alike, the source gives them in different places. These are yes or no findings as the source states them, for the method shown. For some assays here: Binding seen in cells or lysates may run through a third protein. Some results given as binding are weak or reduced against the parent protein; the word gives no strength. For some assays here: Sequences can lack the tags named with a protein. One block for each molecule: values may come before it.

Legend:
[1] = biological target: T1, biotinylated dimerization motif peptide (wild-type) (human); assay: pull-down; 1–5 mg HEK-293 lysate incubated with 3 μg biotinylated peptide 10 min at 4°C, then streptavidin beads 5 min; washed with lysis buffer containing 0.15 M NaCl and buffer A; immunoblot with anti-GST or anti-FLAG; only the target purified
T1 sequence (peptide, biotin-C6 on the N-terminus): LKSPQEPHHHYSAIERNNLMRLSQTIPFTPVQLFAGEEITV

[2] = biological target: T1, biotinylated dimerization motif peptide (wild-type) (human); assay: as above; remark: listed apart in the source
[3] = biological target: T2, biotinylated dimerization motif peptide, mutant (L1718A+L1721A) (human); assay: as above
T2 sequence (peptide, biotin-C6 on the N-terminus): T1 sequence (peptide, biotin-C6 on the N-terminus) with L19A, L22A

[4] = biological target: T3, fluorescently labelled dimerization motif peptide, mutant (L1718A+L1721A), with C-terminal linker GGCCPGCC (human); assay: fluorescence polarisation; 100 nM Lumio Green-labelled peptide with increasing concentrations of GST-TRPM6 kinase fragment; room temperature; 25 mM Tris/HCl pH 7.5, 200 mM NaCl, 5 mM 2-mercaptoethanol; one-site specific binding with Hill slope (Hill slope of 1.0); both purified
T3 sequence (peptide, labelled with Lumio Green): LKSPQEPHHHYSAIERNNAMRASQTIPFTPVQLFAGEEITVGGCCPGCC

- binding [1]: no binding
Molecule: full-length FLAG-tagged TRPM6 kinase-inactive (K1804R) (from UniProt Q9BX84 1-2022)

- binding [1]: binds
Molecule: full-length FLAG-tagged TRPM6 L1718A+L1721A (from UniProt Q9BX84 1-2022)

- binding [1]: no binding
Molecule: full-length FLAG-tagged TRPM6 wild-type (from UniProt Q9BX84 1-2022)

- binding [2]: binds
- binding [3]: no binding
B1: GST-tagged TRPM6-(1730–end), expressed in HEK-293 cells (domain or fragment, UniProt Q9BX84 1730-2022)
chain: VQLFAGEEITVYRLEESSPLNLDKSMSSWSQRGRAAMIQVLSREEMDGGLRKAMRVVSTWSEDDILKPGQVFIVKSFLPEVVRTWHKIFQESTVLHLCLREIQQQRAAQKLIYTFNQVKPQTIPYTPRFLEVFLIYCHSANQWLTIEKYMTGEFRKYNNNNGDEITPTNTLEELMLAFSHWTYEYTRGELLVLDLQGVGENLTDPSVIKPEVKQSRGMVFGPANLGEDAIRNFIAKHHCNSCCRKLKLPDLKRNDYSPERINSTFGLEIKIESAEEPPARETGRNSPEDDMQL

- binding [2]: no binding
B2: GST-tagged TRPM6-(1730–end) A1836N, expressed in HEK-293 cells (domain or fragment, UniProt Q9BX84 1730-2022)
chain: B1 chain with A107N

- binding [2]: no binding
B3: GST-tagged TRPM6-(1730–end) L1919Q, expressed in HEK-293 cells (domain or fragment, UniProt Q9BX84 1730-2022)
chain: B1 chain with L190Q

- binding [2]: no binding
B4: GST-tagged TRPM6-(1730–end) Q1832K, expressed in HEK-293 cells (domain or fragment, UniProt Q9BX84 1730-2022)
chain: B1 chain with Q103K

- binding [4]: no binding
B5: GST-tagged TRPM6-(1730–end), E. coli-purified (domain or fragment, UniProt Q9BX84 1730-2022)
chain: B1 chain

- binding [2]: no binding
B6: GST-tagged TRPM6-(1730–end) L1840A, expressed in HEK-293 cells (domain or fragment, UniProt Q9BX84 1730-2022)
chain: B1 chain with L111A

- binding [2]: no binding
B7: GST-tagged TRPM6-(1730–end) L1743A, expressed in HEK-293 cells (domain or fragment, UniProt Q9BX84 1730-2022)
chain: B1 chain with L14A
